Screen size: about 350,000 compounds; about 9,900 (2.8%) were called active. Inconclusive means that the source gave no clear call. Such entries were picked first, then a sample of the others. The call rests on the fitted dose curve; in most records, active means well fitted activation curve with a large enough effect; inconclusive means small, poorly fitted or top-dose-only effect; inactive means no such curve, though single readings can be large or run the other way. No potency is given beside an inconclusive call; the fits are too rough.
experiment: A quantitative high throughput screen for small molecules that induce DNA re-replication in MCF 10a normal breast cells.; further: nearly all actives have a fitted effect of over 50% in size; on activity, positive = re-replication: % of control where 0% means no effect; conditions: MCF 10A DNA re-replication, Hoechst nuclear intensity, 48 h; activity, positive = re-replication: at 46.1 µM (top of the series)
Potency means the concentration at half of the fitted maximal effect; tags describe the fitted curve by direction and shape.

| SMILES | Potency | activity, positive = re-replication |
| --- | --- | --- |
| CC(C)C(=O)NNC(=O)c1c(O)c2ccccc2[nH]c1=O | inconclusive [activator, single point] |  |
| CCN1CCN(CCOc2ccc(Cl)cc2)CC1 | inconclusive [activator, single point] |  |
| COc1ccc(N2CC(C(=O)Nc3nc4ccc(S(C)(=O)=O)cc4s3)CC2=O)cc1 (stereo not drawn) | inconclusive [activator, single point] |  |
| O=C(O)C1CC=CCC1C(=O)NCCCN1CCCC1=O (stereo not drawn) |  | inactive: 17% |
| CC(=O)c1cc(NC(=O)c2ccc(C)cc2)c(=O)oc1C | inconclusive [activator, single point] |  |
| CC(=O)n1c2ccccc2c2nc(NC(C)C)sc21 | inconclusive [activator, partial curve, poor fit] |  |
| CCCCN(C(=O)c1ccc(OC)c([N+](=O)[O-])c1)c1c(N)n(CCC)c(=O)[nH]c1=O | inconclusive [activator, full curve, poor fit] |  |
| O=C(O)c1cccnc1C(=O)O |  | inactive: 1.53% |
| CCOC(=O)c1c(-c2ccccc2)nc2c(C)cccn12 | inconclusive [activator, partial curve, poor fit] |  |
| COc1cc2[nH]cc(C(=O)NCc3cccs3)c(=O)c2cc1OC |  | inactive: -1.76% |
| OC(CNCCc1ccc(Cl)cc1Cl)COc1ccccc1 (stereo not drawn) | inconclusive [activator, single point] |  |
| c1ccc(CCNCCCOc2cccc3ccccc23)cc1 | inconclusive [activator, partial curve] |  |
| C[C@H](CO)N1C[C@H](C)[C@@H](CN(C)S(=O)(=O)c2cccs2)Oc2c(NC(=O)Nc3ccccc3)cccc2C1=O |  | inactive: -2.04% |
| Cc1ccc(Cl)c(NC(=O)COC(=O)c2cc[n+]([O-])cc2)c1Cl |  | inactive: -0.747% |
| CCC1CCC(C(=O)NNC(=O)OC)CC1 (stereo not drawn) | inconclusive [activator, partial curve] |  |
| CCOc1cc(C2C3=C(CCCC3=O)N(CCC(=O)O)C3=C2C(=O)CCC3)ccc1OS(=O)(=O)c1ccc(C)cc1 | inconclusive [activator, partial curve, poor fit] |  |
| Cc1nc(N2CCN(c3ccccn3)CC2)c2c(C)c(C(=O)Nc3ccccc3F)sc2n1 |  | inactive: 1.31% |
| Cc1ccc(C2C3=C(NCCN=C3c3ccccc3)C(=O)N2c2ccccc2)cc1 (stereo not drawn) |  | inactive: 1.87% |
| COc1ccccc1N(CC(O)COc1ccccc1)S(=O)(=O)c1ccccc1 (stereo not drawn) |  | inactive: 6.01% |
| COc1ccc(NS(=O)(=O)c2cccc(NC(=O)c3ccc(S(=O)(=O)N4CCCCCC4)cc3)c2)cc1 | inconclusive [activator, full curve, poor fit] |  |
| COc1ccc(C(C)(C)C)cc1NC(=O)Nc1ccc2c(c1)OCO2 | inconclusive [activator, full curve, poor fit] |  |
| O=C(/C=C/c1ccccc1)NC(NC(=S)Nc1ccc(Cl)cc1Cl)C(Cl)(Cl)Cl (stereo not drawn) | active: 11.6 µM |  |
| COc1ccc(NC(=O)c2cccc(N3C(=O)c4ccc(C(=O)Nc5ccc(OC)c(O)c5)cc4C3=O)c2)cc1O | inconclusive [activator, partial curve, poor fit] |  |

| SMILES | Potency | activity, positive = re-replication |
| --- | --- | --- |
| CC/C(=N/NS(=O)(=O)c1ccc(Cl)cc1)c1ccc(O)cc1 |  | inactive: 0.0408% |
| COc1cc2sc3ccc(C#CC4(O)CCCCC4)cc3c(=O)c2cc1OC | active: 9.2 µM |  |
| Cc1nn(C)cc1CN1CCCC(C(=O)c2ccc(-c3ccccc3)c(F)c2)C1 (stereo not drawn) | inconclusive [activator, single point] |  |
| O=C(CNS(=O)(=O)c1ccccc1)OCC(=O)c1ccc([N+](=O)[O-])cc1 | inconclusive [activator, partial curve, poor fit] |  |
| O=C(Nc1ccc2c(c1)OCCO2)c1cnn(-c2ccccc2)n1 | inconclusive [activator, single point] |  |
| COC(=O)c1ccc2c(=O)n(CC3CCCO3)c(SCC(=O)Nc3ccccc3OC)nc2c1 (stereo not drawn) |  | inactive: 7.23% |
| CCOc1ccc(S(=O)(=O)NCc2ccc3c(c2)OCO3)cc1C(=O)O |  | inactive: -0.735% |
| COCCNC(=S)NC(=O)c1ccc(C(C)(C)C)cc1 | inconclusive [activator, single point] |  |
| CCCCC(C)Sc1nc2c([nH]1)c(=S)n(C)c(=O)n2C (stereo not drawn) | inconclusive [activator, single point] |  |
| COc1ccc(CNC(=O)C2CCN(S(=O)(=O)c3c(C)noc3/C=C/N(C)C)CC2)cc1 | inconclusive [activator, single point] |  |
| O=c1cc(C(F)(F)F)nc(-n2[nH]c3c(c2=O)CCCC3)[nH]1 |  | inactive: -8.48% |
| COc1ccc(CC(=O)Nc2ccc(S(=O)(=O)N3CCC(C)CC3)cc2)c(OC)c1 | inconclusive [activator, single point] |  |
| CCOc1ccc2nc(Nc3nc4ccc(NC(C)=O)cc4s3)sc2c1 | inconclusive [activator, single point] |  |
| CCCNC(=O)c1onc(CS(=O)(=O)c2cc(C)cc(C)c2)c1C(=O)NCCC | inconclusive [activator, single point] |  |
| Oc1ccccc1N1CCN(c2ncnc3scc(-c4ccc(F)cc4)c23)CC1 | inconclusive [activator, single point] |  |
| C=CCNC(=S)NCc1ccccc1OC | inconclusive [activator, single point] |  |
| Cc1cc(N/N=C/c2ccccc2F)nc(NCc2ccccc2)n1 |  | inactive: 6% |
| Cc1cc(C)nc(-n2nc(C)c3c(=O)[nH]c(C(F)(F)F)nc32)n1 |  | inactive: -0.886% |
| O=C(NCc1cccnc1)c1cccc(S(=O)(=O)NCc2ccccc2)c1 |  | inactive: 3.02% |
| CCOC(=O)C1CCCCN1C(=O)c1cc2ccc(OC)cc2c2cc(OC)c(OC)cc12 (stereo not drawn) | inconclusive [activator, partial curve, poor fit] |  |
| O=S(=O)(c1cccc2cccnc12)N1CCN(c2ccc(F)cc2)CC1 |  | inactive: -7.38% |
| COc1cc(C2CC(=O)Nc3cc(C)c(C)cc32)cc(OC)c1OC (stereo not drawn) | inconclusive [activator, partial curve] |  |
| O=[N+]([O-])c1ccccc1S(=O)(=O)N1CCN(C2CCN(Cc3ccccc3)CC2)CC1 | inconclusive [activator, single point] |  |

| SMILES | Potency | activity, positive = re-replication |
| --- | --- | --- |
| COCc1n[nH]c(=S)n1-c1ccccc1 |  | inactive: 0.962% |
| COc1ccc(S(=O)(=O)NC(C)CCc2ccccc2)cc1 (stereo not drawn) |  | inactive: 28.5% |
| CCS(=O)(=O)N1CCN(C(=O)c2cccnc2)CC1 |  | inactive: -0.505% |
| Cc1ccccc1N1OC2C(=O)N(c3ccc(F)cc3)C(=O)C2C1c1ccccn1 (stereo not drawn) | inconclusive [activator, single point] |  |
| Cn1c(=O)c2cc3ccccc3nc2n(C)c1=O | inconclusive [activator, partial curve, poor fit] |  |
| CCNc1ccc(C(=O)OCC(=O)NCc2ccccc2Cl)cc1[N+](=O)[O-] | inconclusive [activator, single point] |  |
| CC1CCN(c2c(NCC3CCC(C(=O)NCCCc4ccccc4)CC3)c(=O)c2=O)CC1 (stereo not drawn) | inconclusive [activator, full curve, poor fit] |  |
| COC(=O)c1oc2ccc(OC)cc2c1N |  | inactive: 1.68% |
| O=C(OCC(=O)N1CCOCC1)c1cc(-c2ccccc2)nc2ccccc12 | inconclusive [activator, single point] |  |
| COc1ccc(/C=N/NC(=O)c2nn(-c3ccc(C)c(C)c3)c(=O)c3ccccc23)cc1 | inconclusive [activator, partial curve] |  |
| CC(C)NC(=O)c1cc(-c2ccc(Br)cc2)on1 |  | inactive: -10.2% |
| O=C1c2cccc3cccc(c23)C(=O)N1CC1CCN(CC(O)COc2ccc3ccccc3c2)CC1 (stereo not drawn) | inconclusive [activator, single point] |  |
| S=c1[nH]nc(-c2cccc(Cl)c2)n1/N=C/c1ccco1 |  | inactive: -0.903% |
| CC(=O)c1cc(-c2ccccc2)n(CCC(=O)NC2CCCCCCC2)c1C | inconclusive [activator, full curve, poor fit] |  |
| Cc1ccc(N(CCC#N)C(=O)COC(=O)C2=COCCO2)cc1 |  | inactive: 1.02% |
| CCOC(=O)c1c(CN2CCN(c3ccccc3)CC2)oc2ccc(O)cc12 | inconclusive [activator, full curve, poor fit] |  |
| CCOc1ccc(S(=O)(=O)NCCC(=O)N2CC(C)OC(C)C2)cc1 (stereo not drawn) | inconclusive [activator, full curve, poor fit] |  |
| C#CCOCCOCCOCCNc1nc(N2CCN(C(=O)[C@H]([C@@H](C)CC)n3cc([C@@H](N)CC(C)C)nn3)CC2)nc(N2CCN(C(=O)[C@H](CCCCN)n3cc([C@@H](N)CC(C)C)nn3)CC2)n1 | inconclusive [activator, full curve, poor fit] |  |
| Cc1ccc(NC(=O)CN(C)CC(=O)Nc2ccc(F)c(Cl)c2)cc1 | active: 20.6 µM |  |
| Cc1c(Cl)ccc2c1NC(=O)[C@]21[C@@H]2C(=O)N(Cc3ccccc3)C(=O)[C@@H]2[C@@H]2CCCN21 | inconclusive [activator, single point] |  |
| Cc1ccnc(NC(=O)c2cccc(S(=O)(=O)N3CCCc4ccccc43)c2)c1 | inconclusive [activator, single point] |  |
| C=CCOc1ccc(C=NNc2ccc(S(=O)(=O)Nc3ccccc3C(=O)O)cc2[N+](=O)[O-])cc1OC | inconclusive [activator, single point] |  |

From PubChem BioAssay AID624296 (National Center for Advancing Translational Sciences (NCATS), 2012)
